Measurements taken from publication PMC5923123, “In Vitro and In Vivo Efficacy of a Novel and Long-Acting Fungicidal Azole, PC1244, on Aspergillus fumigatus Infection” (Antimicrobial Agents and Chemotherapy, 2018).

System: four ITC-susceptible laboratory A. fumigatus strains (ATCC 1028, ATCC 10894, ATCC 13073, ATCC 16424)
Test: CLSI M38-A MIC (visual)
Conditions: for MIC: Aspergillus fumigatus

Compound: Cc1cc(N2CCN(c3ccc(C(=O)N[C@H]4CCCC[C@@H]4O)cc3)CC2)ccc1OC[C@@H]1CO[C@@](Cn2cncn2)(c2ccc(F)cc2F)C1 [PC1244, 4-(4-(4-(((3R,5R)-5-((1H-1,2,4-triazol-1-yl)methyl)-5-(2,4-difluorophenyl)tetrahydrofuran-3-yl)methoxy)-3-methylphenyl)piperazin-1-yl)-N-((1S,2S)-2-hydroxycyclohexyl)benzamide]
- MIC: 0.063 µg/mL (≈ 0.0917 µM)
- fold more potent than VRC (MIC) (CLSI M38-A): 8 fold

Compound: CC[C@@H]([C@H](C)O)n1ncn(-c2ccc(N3CCN(c4ccc(OC[C@@H]5CO[C@@](Cn6cncn6)(c6ccc(F)cc6F)C5)cc4)CC3)cc2)c1=O [Posaconazole, posaconazole]
- MIC: 0.047 µg/mL (≈ 0.0671 µM)

Compound: C[C@@H](c1ncncc1F)[C@](O)(Cn1cncn1)c1ccc(F)cc1F [Voriconazole, voriconazole]
- MIC: 0.5 µg/mL (≈ 1.43 µM)

Values after ≈ are worked out from the molar mass of the structure shown.
